For 94 sequences, binding signal results are on record in publication PMC6212790.

This is one part of the list. At the low end of the ranking the order means little.

The assay concerns the target T1, GST-Rok-C97-191 (UniProt O34857).
T1 sequence: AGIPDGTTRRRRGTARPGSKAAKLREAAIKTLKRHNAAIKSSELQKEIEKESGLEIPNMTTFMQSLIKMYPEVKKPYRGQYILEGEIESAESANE
Description: protein binding microarray.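 Further: rank score from −0.5 (least bound) to 0.5 (best bound).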 The note with it: Rok is a gene silencer of Bacillus subtilis; high values mean tight binding; most listed sequences are background and not binding sites; double strand, one strand shown.
On to GCCTCAGA, for which the binding signal was -0.238 E-score. With GGGCCTAC the figure was -0.157 E-score; with TCCGTTCA, -0.145 E-score.

Sequence AGTTAAGA came in with a binding signal of 0.0443 E-score. For AGCGACAA, the binding signal was -0.196 E-score. With AACAATCG the figure was 0.0562 E-score; with AAGCCACG, -0.355 E-score; with GGGCTTAA, -0.174 E-score.

With CCCACTGA, the binding signal is -0.286 E-score. In turn, AAACGTGT had a binding signal of 0.00989 E-score. Next, CATGATCC: 0.0498 E-score. Next, TTAGTCAA: 0.178 E-score; ACCTTAAC: -0.00952 E-score. With AGGCTAAA the figure was 0.025 E-score. For CACCACCC, the binding signal is -0.216 E-score. For the sequence ATTAAAGA, the binding signal amounted to 0.0688 E-score. With ATTAGAAT the figure was 0.172 E-score. The sequence AGGTTTGC gave a binding signal of -0.00436 E-score.

For GTCTCGCA, the binding signal was -0.092 E-score. Next, GCCATCCC: -0.322 E-score; AATGCCCA: -0.197 E-score. Next, CCGATGCC: -0.213 E-score.

In turn, CCCCCACA yielded a binding signal of -0.2 E-score. With AATGTCTG the figure was -0.0689 E-score; with AACTTGAT, 0.106 E-score; with CCCGAAAG, -0.363 E-score. Next, ATTACGAG: 0.189 E-score. With CGGAGCTA the figure was -0.0829 E-score.

For the sequence CTGGAAGA, the binding signal is -0.0538 E-score. As to CTGAAGAA, the binding signal is -0.16 E-score. With AATTGCGA the figure was 0.139 E-score. Next, CTGTGCGC: -0.089 E-score; GCCTGCGC: -0.24 E-score; AGCCGTTG: -0.179 E-score. With AGTTATAG the figure was 0.258 E-score. ATTGAGAA had a binding signal of 0.039 E-score. As for CCCCGGGC, the binding signal was -0.292 E-score. The sequence GGTTATGA displayed a binding signal of -0.179 E-score.

Regarding ACGCCTTC, the binding signal was -0.108 E-score. The sequence GACATAAC returned a binding signal of 0.151 E-score.

As for CCTCTTGA, the binding signal was -0.179 E-score. With ATTCGGAC the figure was -0.173 E-score. For CATCCGCA, the binding signal was -0.0559 E-score. Next, AACCCCGT: -0.201 E-score; AATGGCTC: -0.0224 E-score; ATAACCAC: -0.0135 E-score. Next, CCTGGTCC: -0.28 E-score; CATGTGTC: 0.0554 E-score; AGTTACGG: 0.228 E-score.

In turn, CTTAGAGC returned a binding signal of -0.167 E-score. With AAGAAGGA the figure was -0.0711 E-score. Next, AGGATGCA: 0.11 E-score; GGGGGCTA: -0.267 E-score. With AAATGAGA the figure was -0.0222 E-score; with CAAACGTC, -0.0617 E-score.

On to CCGGCCTA, for which the binding signal was -0.0345 E-score. In turn, AAACCCCA registered a binding signal of -0.228 E-score.

As to ATATGAGG, the binding signal is -0.0533 E-score. With CAGGGACC the figure was -0.0539 E-score. ATTCCACC: the binding signal was -0.0276 E-score. Next, AAAAGACG: 0.0272 E-score.

As to GCTAGACA, the binding signal turned out to be 0.112 E-score. Next, ATCCCGTG: -0.234 E-score; CCCGCTCA: -0.228 E-score; AATGTCGG: -0.117 E-score. Next, GAGCGTAC: -0.187 E-score; CTAACAGA: 0.202 E-score.

Consider CAATAATC, for which the binding signal was 0.0525 E-score. Next, CTGGCAGC: -0.153 E-score; GTTACTGA: 0.173 E-score; AACCTTTC: -0.136 E-score. With TTCTAGAA, the binding signal worked out at 0.2 E-score.

For the sequence CTGAGTCC, the binding signal is -0.0831 E-score. The sequence GCTAGAAA registered a binding signal of 0.314 E-score. With AGAACATG the figure was 0.0464 E-score; with ACCCCTGA, -0.105 E-score. With GAACGTCC the figure was -0.241 E-score; with CCAGACCG, -0.0852 E-score. Next, AATCGAAG: 0.193 E-score; GCAAGCAA: -0.202 E-score; CCACCTAC: -0.0319 E-score. With CCAAACGG, the binding signal is -0.0693 E-score. With GATTTGTA the figure was 0.176 E-score; with CTCGGGTA, 0.109 E-score. With GGTTGAAC the figure was -0.221 E-score; with GTTCCTAA, 0.0575 E-score. With AGGATGTA the figure was 0.0969 E-score; with CTGTTTGA, -0.14 E-score; with AAGGTAAC, 0.0652 E-score. Consider CAACTAGC, for which the binding signal stood at 0.214 E-score. Next, CTATTCGC: -0.0491 E-score.

ATTGTACC showed a binding signal of 0.239 E-score.

As for CGGTTGGA, the binding signal was -0.268 E-score. Next, AAGTCAAG: -0.109 E-score.
